Results reported in the supplement of paper PMC8728848.
Some of the results follow.

What was measured:
Experiment in all cases: glycan array binding signal (z-score within array); higher = stronger binding
Conditions in all cases: glycan notation: IUPAC condensed, linker removed
[1] = molecular target: Fuc(a1-2)Gal(b1-4)GlcNAc(b1-3)Gal(b1-4)GlcNAc(b1-3)Gal(b1-4)GlcNAc
How it was run: (§1)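 Arrays were curated from the Consortium for Functional Glycomics database, 3228 in total, and kept only where the protein sequence was available. Binding is expressed as a within-array Z-score. This score was averaged across arrays of the same protein sequence at different concentrations or buffers and across linkers, and negative values can be read as non-binding.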

[2] = molecular target: Fuc(a1-2)Gal(b1-4)GlcNAc(b1-3)GalNAc
How it was run: as §1

[3] = molecular target: Fuc(a1-2)Gal(b1-4)GlcNAc(b1-3)[Fuc(a1-2)Gal(b1-4)GlcNAc(b1-6)]GalNAc
How it was run: as §1

[4] = molecular target: Fuc(a1-2)Gal(b1-4)GlcNAc(b1-3)[Fuc(a1-3)[Gal(b1-4)]GlcNAc(b1-6)]Gal(b1-4)Glc
How it was run: as §1

[5] = molecular target: Fuc(a1-2)Gal(b1-4)GlcNAc(b1-6)GalNAc
How it was run: as §1

[6] = molecular target: Fuc(a1-2)Gal(b1-4)GlcNAc6S
How it was run: as §1

[7] = molecular target: Fuc(a1-2)Gal(b1-4)[Fuc(a1-3)]GlcNAc
How it was run: as §1

[8] = molecular target: Fuc(a1-2)Gal(b1-4)[Fuc(a1-3)]GlcNAc(b1-2)Man(a1-3)[Fuc(a1-2)Gal(b1-4)[Fuc(a1-3)]GlcNAc(b1-2)Man(a1-6)]Man(b1-4)GlcNAc(b1-4)[Fuc(a1-6)]GlcNAc
How it was run: as §1

[9] = molecular target: Fuc(a1-2)Gal(b1-4)[Fuc(a1-3)]GlcNAc(b1-2)[Fuc(a1-2)Gal(b1-4)[Fuc(a1-3)]GlcNAc(b1-4)]Man(a1-3)[Fuc(a1-2)Gal(b1-4)[Fuc(a1-3)]GlcNAc(b1-2)Man(a1-6)]Man(b1-4)GlcNAc(b1-4)GlcNAc
How it was run: as §1

[10] = molecular target: Fuc(a1-2)Gal(b1-4)[Fuc(a1-3)]GlcNAc(b1-3)Gal(b1-4)[Fuc(a1-3)]GlcNAc
How it was run: as §1

[11] = molecular target: Fuc(a1-2)Gal(b1-4)[Fuc(a1-3)]GlcNAc(b1-3)Gal(b1-4)[Fuc(a1-3)]GlcNAc(b1-3)Gal(b1-4)[Fuc(a1-3)]GlcNAc
How it was run: as §1

[12] = molecular target: Fuc(a1-2)Gal(b1-4)[Fuc(a1-3)]GlcNAc(b1-3)GalNAc
How it was run: as §1

[13] = molecular target: Fuc(a1-2)Gal(b1-4)[Fuc(a1-3)]GlcNAc(b1-3)[Neu5Ac(a2-6)Gal(b1-4)GlcNAc(b1-6)]Gal(b1-4)Glc
How it was run: as §1

[14] = molecular target: Fuc(a1-2)Gal3S(b1-4)GlcNAc
How it was run: as §1

[15] = molecular target: Fuc(a1-2)Gal6S(b1-3)GlcNAc
How it was run: as §1

[16] = molecular target: Fuc(a1-2)Gal6S(b1-3)GlcNAc6S
How it was run: as §1

Fuc(a1-2)Gal6S(b1-4)Glc = molecular target: Fuc(a1-2)Gal6S(b1-4)Glc
How it was run: as §1

[17] = molecular target: Fuc(a1-2)Gal6S(b1-4)Glc6S
How it was run: as §1

Fuc(a1-2)[Gal(a1-3)]Gal = molecular target: Fuc(a1-2)[Gal(a1-3)]Gal
How it was run: as §1

[18] = molecular target: Fuc(a1-2)[Gal(a1-3)]Gal(b1-3)GalNAc
How it was run: as §1

[19] = molecular target: Fuc(a1-2)[Gal(a1-3)]Gal(b1-3)GalNAc(b1-3)Gal(a1-4)Gal(b1-4)Glc
How it was run: as §1

[20] = molecular target: Fuc(a1-2)[Gal(a1-3)]Gal(b1-3)GlcNAc
How it was run: as §1

[21] = molecular target: Fuc(a1-2)[Gal(a1-3)]Gal(b1-3)GlcNAc(b1-2)Man(a1-3)[Fuc(a1-2)[Gal(a1-3)]Gal(b1-3)GlcNAc(b1-2)Man(a1-6)]Man(b1-4)GlcNAc(b1-4)GlcNAc
How it was run: as §1

[22] = molecular target: Fuc(a1-2)[Gal(a1-3)]Gal(b1-3)GlcNAc(b1-2)Man(a1-3)[Fuc(a1-2)[Gal(a1-3)]Gal(b1-3)GlcNAc(b1-2)Man(a1-6)]Man(b1-4)GlcNAc(b1-4)[Fuc(a1-6)]GlcNAc
How it was run: as §1

[23] = molecular target: Fuc(a1-2)[Gal(a1-3)]Gal(b1-3)GlcNAc(b1-3)GalNAc
How it was run: as §1

[24] = molecular target: Fuc(a1-2)[Gal(a1-3)]Gal(b1-3)GlcNAc(b1-6)GalNAc
How it was run: as §1

[25] = molecular target: Fuc(a1-2)[Gal(a1-3)]Gal(b1-4)Glc
How it was run: as §1

[26] = molecular target: Fuc(a1-2)[Gal(a1-3)]Gal(b1-4)GlcNAc
How it was run: as §1

[27] = molecular target: Fuc(a1-2)[Gal(a1-3)]Gal(b1-4)GlcNAc(b1-2)Man
How it was run: as §1

[28] = molecular target: Fuc(a1-2)[Gal(a1-3)]Gal(b1-4)GlcNAc(b1-2)Man(a1-3)[Fuc(a1-2)[Gal(a1-3)]Gal(b1-4)GlcNAc(b1-2)Man(a1-6)]Man(b1-4)GlcNAc(b1-4)GlcNAc
How it was run: as §1

[29] = molecular target: Fuc(a1-2)[Gal(a1-3)]Gal(b1-4)GlcNAc(b1-2)Man(a1-3)[Fuc(a1-2)[Gal(a1-3)]Gal(b1-4)GlcNAc(b1-2)Man(a1-6)]Man(b1-4)GlcNAc(b1-4)[Fuc(a1-6)]GlcNAc
How it was run: as §1

[30] = molecular target: Fuc(a1-2)[Gal(a1-3)]Gal(b1-4)GlcNAc(b1-3)GalNAc
How it was run: as §1

[31] = molecular target: Fuc(a1-2)[Gal(a1-3)]Gal(b1-4)GlcNAc(b1-3)[Fuc(a1-2)[Gal(a1-3)]Gal(b1-4)GlcNAc(b1-6)]GalNAc
How it was run: as §1

[32] = molecular target: Fuc(a1-2)[Gal(a1-3)]Gal(b1-4)GlcNAc(b1-6)GalNAc
How it was run: as §1

[33] = molecular target: Fuc(a1-2)[Gal(a1-3)]Gal(b1-4)[Fuc(a1-3)]Glc
How it was run: as §1

[34] = molecular target: Fuc(a1-2)[Gal(a1-3)]Gal(b1-4)[Fuc(a1-3)]GlcNAc
How it was run: as §1

[35] = molecular target: Fuc(a1-2)[Gal(a1-3)]Gal(b1-4)[Fuc(a1-3)]GlcNAc(b1-3)GalNAc
How it was run: as §1

[36] = molecular target: Fuc(a1-2)[Gal(a1-4)]Gal(b1-4)GlcNAc
How it was run: as §1

[37] = molecular target: Fuc(a1-2)[GalNAc(a1-3)]Gal
How it was run: as §1

[38] = molecular target: Fuc(a1-2)[GalNAc(a1-3)]Gal(b1-3)GalNAc(a1-3)[Fuc(a1-2)]Gal(b1-4)GlcNAc
How it was run: as §1

[39] = molecular target: Fuc(a1-2)[GalNAc(a1-3)]Gal(b1-3)GalNAc(b1-3)Gal(a1-4)Gal(b1-4)Glc
How it was run: as §1

[40] = molecular target: Fuc(a1-2)[GalNAc(a1-3)]Gal(b1-3)GlcNAc
How it was run: as §1

[41] = molecular target: Fuc(a1-2)[GalNAc(a1-3)]Gal(b1-3)GlcNAc(b1-2)Man(a1-3)[Fuc(a1-2)[GalNAc(a1-3)]Gal(b1-3)GlcNAc(b1-2)Man(a1-6)]Man(b1-4)GlcNAc(b1-4)GlcNAc
How it was run: as §1

[42] = molecular target: Fuc(a1-2)[GalNAc(a1-3)]Gal(b1-3)GlcNAc(b1-2)Man(a1-3)[Fuc(a1-2)[GalNAc(a1-3)]Gal(b1-3)GlcNAc(b1-2)Man(a1-6)]Man(b1-4)GlcNAc(b1-4)[Fuc(a1-6)]GlcNAc
How it was run: as §1

[43] = molecular target: Fuc(a1-2)[GalNAc(a1-3)]Gal(b1-3)GlcNAc(b1-3)GalNAc
How it was run: as §1

B1: SAOUHSC 00176 (Staphylococcus aureus) (protein)
chain: MSKILKCITLAVVMLLIVTACGPNRSKEDIDKALNKDNSKDKPNQLTMWVDGDKQMAFYKKITDQYTKKTGIKVKLVNIGQNDQLENISLDAPAGKGPDIFFLAHDNTGSAYLQGLAAEIKLSKDELKGFNKQALKAMNYDNKQLALPAIVETTALFYNKKLVKNAPQTLEEVEANAAKLTDSKKKQYGMLFDAKNFYFNYPFLFGNDDYIFKKNGSEYDIHQLGLNSKHVVKNAERLQKWYDKGYLPKAATHDVMIGLFKEGKVGQFVTGPWNINEYQETFGKDLGVTTLPTDGGKPMKPFLGVRGWYLSEYSKHKYWAKDLMLYITSKDTLQKYTDEMSEITGRVDVKSSNPNLKVFEKQARHAEPMPNIPEMRQVWEPMGNASIFISNGKNPKQALDEATNDITQNIKILHPSQNDKKGD
glycan array binding signal (z-score) [1]: -0.063 | glycan array binding signal (z-score) [2]: 0.013 | glycan array binding signal (z-score) [3]: -0.136 | glycan array binding signal (z-score) [4]: -0.035 | glycan array binding signal (z-score) [5]: -0.032 | glycan array binding signal (z-score) [6]: -0.211 | glycan array binding signal (z-score) [7]: -0.084 | glycan array binding signal (z-score) [8]: -0.109 | glycan array binding signal (z-score) [9]: 0.546 | glycan array binding signal (z-score) [10]: -0.122 | glycan array binding signal (z-score) [11]: -0.14 | glycan array binding signal (z-score) [12]: -0.173 | glycan array binding signal (z-score) [13]: -0.131 | glycan array binding signal (z-score) [14]: -0.135 | glycan array binding signal (z-score) [15]: -0.13 | glycan array binding signal (z-score) [16]: -0.127 | glycan array binding signal (z-score) (Fuc(a1-2)Gal6S(b1-4)Glc): -0.108 | glycan array binding signal (z-score) [17]: -0.14 | glycan array binding signal (z-score) (Fuc(a1-2)[Gal(a1-3)]Gal): 0.117 | glycan array binding signal (z-score) [18]: -0.121 | glycan array binding signal (z-score) [19]: -0.177 | glycan array binding signal (z-score) [20]: -0.115 | glycan array binding signal (z-score) [21]: -0.052 | glycan array binding signal (z-score) [22]: 0.042 | glycan array binding signal (z-score) [23]: -0.087 | glycan array binding signal (z-score) [24]: -0.086 | glycan array binding signal (z-score) [25]: -0.004 | glycan array binding signal (z-score) [26]: -0.128 | glycan array binding signal (z-score) [27]: -0.065 | glycan array binding signal (z-score) [28]: -0.01 | glycan array binding signal (z-score) [29]: 0.027 | glycan array binding signal (z-score) [30]: -0.196 | glycan array binding signal (z-score) [31]: 0.03 | glycan array binding signal (z-score) [32]: -0.115 | glycan array binding signal (z-score) [33]: -0.161 | glycan array binding signal (z-score) [34]: -0.07 | glycan array binding signal (z-score) [35]: -0.117 | glycan array binding signal (z-score) [36]: -0.01 | glycan array binding signal (z-score) [37]: -0.129 | glycan array binding signal (z-score) [38]: -0.122 | glycan array binding signal (z-score) [39]: -0.02 | glycan array binding signal (z-score) [40]: -0.088 | glycan array binding signal (z-score) [41]: -0.14 | glycan array binding signal (z-score) [42]: -0.133 | glycan array binding signal (z-score) [43]: -0.086
